To fix the notation:
B1: CPEB3 Ribozyme (parent)
chain: UAACAGGGGGCCACAGCAGAAGCGUUCACGUCGCAGCCCCUGUCAGAUUCUGGUGAAUCUGCGAAUUCUGCUGUAUAUCUC

The source gives no read counts; variants with many changes may rest on few reads.

The variants in this series derive from B1. Kind of series: self-cleavage, relative activity (ratio to wild type); higher = more cleavage; in vitro, sequencing. In short, it runs like this: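 Libraries of CPEB3 self-cleaving ribozyme mutants came from rounds of error-prone PCR and carried barcodes, which DNA sequencing matched to variants. In vitro transcription used T7 RNA polymerase at 37°C for 5 hours, with a further 15 min in DNase I before EDTA stopped the reaction; the ribozymes cleaved during both steps. The RNA was reverse transcribed with template switching and sequenced on Illumina. Relative activity is the cleaved/total read fraction of a variant divided by that of the unmutated ribozyme, averaged over three batches with at least 5 reads.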
As to A3U C23A U31C U43C U49A, the self-cleavage was found to be 0.1.
The same measure for A3G U26C U41C U69A: 0.18; for A3U C4U A15C: 1.
A3G U26C C59U U66C: the self-cleavage was 0.34.
C4U A15G U72A U78C: the self-cleavage is 0.54.
As for A3U A13U U26C U54C G55C U58C U72C, the self-cleavage amounted to 0.19.
Turning to C4U A15G G16U U66C, the self-cleavage is 0.36.
As for A3U U25C U43C U49C U60A A65G U80C, the figure is 0.22.
As for A3G U26C A57U, the self-cleavage was 0.2.
For the variant A3G U26C A35G U67A, the self-cleavage was determined as 0.31.
Turning to A3U A20G U31C A35U A45G G52U A65G, the self-cleavage was 0.2.
With A3G U26C C68A U69G, the self-cleavage is 0.41.
As to C4U U60A U76A, the self-cleavage turned out to be 0.94.
As for A3U U51C G52U, the figure is 1.06; as for A3U A13U C39U U48C U51A U60A U72A, 0.11.
Consider A3U G10U U58C, for which the self-cleavage was 0.07.
Turning to C4U U26C A64G U80C, the self-cleavage amounted to 0.65.
In the case of A3U A18G A28G A57G A65G, the self-cleavage worked out at 0.26.
Regarding A3U U43A G46U A56G, the self-cleavage turned out to be 0.25.
In the case of A5C A15G A20U U41C U51C A57G A75G, the self-cleavage stood at 0.23.
Take C4U U26A U49C U51C: the self-cleavage is 0.45.
For the variant A3U G7U G30U C62A U80C, the self-cleavage amounted to 0.34.
For the variant A3U U43C U49A A57G U80G, the self-cleavage amounted to 0.26.
Regarding C4U A21G U67C, the self-cleavage stood at 0.34.
With C4A U26A A47U, the self-cleavage was determined as 0.53.
For C4U C34A U41A A64G U78C, the self-cleavage is 0.14.
Regarding A3U G10A A47C A75G, the self-cleavage came to 0.05.
As for A3U U60A U69C U78C, the figure is 0.49.
The same measure for A3G U26G A35U A45G U66C U72C: 0.41.
In the case of A3U A5G A35U A47G U76A, the self-cleavage amounted to 0.31.
A3G U43C A47G U80C: the self-cleavage came to 0.77.
For C4U G19U A35U C50A U60A, the self-cleavage was determined as 0.11.
Consider A3U U43A A45G G63U U69C, for which the self-cleavage was determined as 0.29.
A3U U43A U51C U69C: the self-cleavage worked out at 0.71.
As for A3G U41C U66C, the figure is 0.41; as for A3U U51G A64G A75G, 0.8; as for A3G U26C U31C U41A A77G, 0.
A3G U31C U51C G55A A57U: the self-cleavage was 0.23.
The same measure for A3G U31C A77G U80C: 1.15; for A3U G7U U54C: 0.29; for C4A A13G A18G U25G A45U A64G: 0.05.
In the case of A3G U60C C62G, the self-cleavage was found to be 0.22.
Take A3G U26C U60A: the self-cleavage was 0.58.
As to A3G U41C A64C, the self-cleavage is 0.3.
In the case of C4G A5U U43C U54C G63U, the self-cleavage came out at 0.64.
As to A3G U25C U76A, the self-cleavage amounted to 0.
For the variant C4U A18U C27A U54A G70C, the self-cleavage turned out to be 0.33.
Take A3U U54C G63A A65G A77C: the self-cleavage is 0.54.
A3U U66C U80C: the self-cleavage amounted to 0.55.
As for A3U C17G U26C A45G, the self-cleavage was 0.09.
A3U C4U U49C U69A U72A: the self-cleavage stood at 0.13.
Turning to C4A G33U U67A, the self-cleavage amounted to 0.22.
Regarding A3G U74A U80C, the self-cleavage stood at 1.15.
A3U A15G A75G: the self-cleavage was 1.21.
As for A3U G19U U41C G61A G63A U69G C79U, the figure is 0.22.
Take A3U G22A U41A U48A A65G U76A: the self-cleavage came out at 0.39.
In the case of C4G C11U A18G A20G C59U, the self-cleavage turned out to be 0.1.
For C4G A5G U26C U58C, the self-cleavage stood at 0.09.
For A3U A13U C14A A45G, the self-cleavage was 1.07.
As for C4A G10A C29G U49A U51C U58A U66C, the figure is 0.05; as for A3G U43C A45G U60C, 0.44; as for A3G U41A U49C A57G, 0.25.
With A3G U26C U51A U54C, the self-cleavage amounted to 0.66.
As for A3U U31C C40U, the self-cleavage came to 1.11.
C4U A28G A35G G42A A65G: the self-cleavage is 0.29.
Take C4U A13U C32A U51A U67A: the self-cleavage turned out to be 0.29.
For A3U A18U C34U, the self-cleavage came out at 0.25.
As for A3U A21G A35G A64U U66C, the self-cleavage turned out to be 0.84.
Turning to A3U U25C U26C A45G A77U, the self-cleavage worked out at 0.1.
With C4A G19C A28U U51A, the self-cleavage was 0.08.
On to A3U C27A C38A G42A, for which the self-cleavage was determined as 0.33.
The same measure for C4G A18G C40U U43C: 0.24; for A3G U31C G46A U58C A77G: 0.13; for C4U A21G C27A U60C U69A: 0.11.
The same measure for A5C A13G A18U U26A U41C: 0.63; for A3U A20G A35U U43A U60C: 0.1.
Turning to A3U A21C U25C A35U, the self-cleavage stood at 0.15.
Take A3U U25A A47G A56U A75U: the self-cleavage amounted to 0.16.
Regarding A3U A20U A35U C44A A45U U69A, the self-cleavage turned out to be 0.08.
Turning to C4U A20G A35G A64U A75G, the self-cleavage was 0.51.
In the case of A3G U41C C44A U60C U76A, the self-cleavage came to 0.2.
In the case of A3G U48C U51C, the self-cleavage is 0.56.
On to A3U A20G C59A U72G, for which the self-cleavage came to 0.27.
On to C4G A21G U31A A45U U80C, for which the self-cleavage is 0.11.
With A3U C11G C27G A47U A57U, the self-cleavage was determined as 0.22.
For A3U C12U U25C C32U A45U A47U A65U, the self-cleavage is 0.06.
A3G U48C U60G U76G A77U: the self-cleavage was found to be 0.13.
As to A5C A15G A18U U43A A64G, the self-cleavage came out at 0.63.
The same measure for A3G U31C C44U: 0.29; for A3U C12U A45U U67C U76A: 0.32; for A3U C68U U69C U72C: 0.29.
C4U A35U U43C A57G A77G: the self-cleavage came out at 0.24.
As for A3G U48C U69A U80C, the self-cleavage is 0.2.
Consider A3G U41C A47G C62G, for which the self-cleavage is 0.29.
Consider A3U A20G U67C A77U, for which the self-cleavage worked out at 1.05.
A3G U31A A57G A64G: the self-cleavage came out at 0.38.
With A3U G22U A28G A35U U41A A56U U66C, the self-cleavage worked out at 0.3.
With A3U G8A G63A, the self-cleavage is 0.53.
The same measure for A3U A20C U26C: 0.56; for C4G A5U C14A U43A A45U: 0.96.
Take A3G U31C A57G U69C: the self-cleavage was found to be 0.45.
As to A3G U51A U66C A75G, the self-cleavage amounted to 0.3.
Take A5C A15G G55C A64G U72C: the self-cleavage was 1.07.
Regarding A3U A18G G22U U48C U72C U74C, the self-cleavage was found to be 0.17.
The same measure for A3G U49A U51A: 0.11; for C4U G10A C40A U60A C71U U74C: 0.06; for A3G U41A A45G U51A U60C U69A U80G: 0.06.
Take A3U G7A A56G C71A: the self-cleavage came to 0.08.
Regarding C4A A15G A28U U60A U69C, the self-cleavage came to 0.1.
As for A3U A20G U48C, the self-cleavage was 0.53.
With A3U A5U G61U, the self-cleavage turned out to be 0.76.
With A3U C4A C40U, the self-cleavage worked out at 0.71.
Consider A3U U26C C40U, for which the self-cleavage was 0.43.
For A3G U49C U80A, the self-cleavage came out at 0.78.
Regarding A3U U41A G46A U51C G63A A65U, the self-cleavage was 0.1.
As to A3G U48C U60G U66A U67C, the self-cleavage was determined as 0.27.
With A3U C23U C37A A65G, the self-cleavage was 0.12.
Regarding C4U G9A U41A A57G U66A, the self-cleavage turned out to be 0.08.
For the variant C4U C23U U43C U76C, the self-cleavage was 0.15.
Consider A3U A20U A47G, for which the self-cleavage turned out to be 0.49.
Regarding C4U U31A U43C U72A, the self-cleavage turned out to be 0.38.
A3U A18G C23U G46A: the self-cleavage is 0.28.
In the case of A3G U25G A64U, the self-cleavage came to 0.28.
In the case of A3G U41C U49C, the self-cleavage was found to be 0.5.
Turning to A3U U26A G53U U58C, the self-cleavage was determined as 0.41.
The same measure for A3U C12G C14U U66C: 0.29; for A3G U48C U78A: 0.96.
Regarding A3U A13G U26C G30C U60A, the self-cleavage was found to be 0.24.
In the case of A3G U51C U72A A75G, the self-cleavage was found to be 1.15.
Regarding A3U A18G A35G A57G A65G A75G, the self-cleavage was determined as 0.8.
In the case of A3G U54C U78C, the self-cleavage was 0.56.
With C4U C37U A65G U67C U69A, the self-cleavage was 0.15.
As for C4U A65G U80C, the figure is 0.72; as for A3G U25G U54A A65C U69A U78C, 0.07.
As to A3U A5U G10A A64U, the self-cleavage came out at 0.12.
As for A3U U48C A64G G70A U78C, the self-cleavage came to 0.12.
As to A5C A13U A28G C40U A57G U60A U78A, the self-cleavage stood at 0.12.
For the variant A3G U41C U67C, the self-cleavage came out at 0.3.
For the variant A3U A13C U48C A65G, the self-cleavage came to 0.29.
A5C A15C U41C U54G A57G A65G: the self-cleavage turned out to be 0.11.
As for A3U A18U A21U A64U, the figure is 0.08; as for A3U A13G U41A U72C U78C, 0.24.
As for C4U C11U A15G A56G U58A, the self-cleavage amounted to 0.25.
On to A3U A5C A13U A20G C32A U49C U69C, for which the self-cleavage amounted to 0.18.
For the variant A3G U48A A57U, the self-cleavage came to 1.13.
With C4U U25C U51G, the self-cleavage came to 0.59.
Turning to A3G U60C U72C, the self-cleavage turned out to be 0.43.
With C4U A35G U41C U78A, the self-cleavage turned out to be 1.24.
Regarding A3U A15G U26C A35G A47G U49C, the self-cleavage was 0.04.
For the variant A3G U31A C40A A56G U60A U78C, the self-cleavage was 0.06.
For the variant C4U U41C G53A, the self-cleavage came out at 1.16.
Turning to A3G U26C A28G C40U U54C U60A U80G, the self-cleavage worked out at 0.09.
Turning to A3U A13U U25C A64U, the self-cleavage was determined as 0.12.
Regarding A3U G24A C27U U41C A45G U69A, the self-cleavage came to 0.05.
A3U A20U C68G U74A: the self-cleavage came out at 0.29.
As to A3G U31A U51C, the self-cleavage is 0.47.
Turning to A3U A18G G24U U43C U48C U58C U72G, the self-cleavage stood at 0.3.
On to C4U A13U U72C, for which the self-cleavage worked out at 1.08.
The same measure for C4U G7A U31C A65G U67C U72G: 0; for A3G U26C U41A U80C: 0.1.
As for A3U G24A U41A U67A G73U, the figure is 0.09; as for A3G U41A A56G U80G, 0.08; as for A3U A28G U54C U67C U72A, 0.17.
As for A3U U54C A65G, the figure is 0.31; as for A5C A13U U25C U41A U51A U72A U78C, 0.08; as for A3U A21G U25C U26A A35G U76C, 0.6.
In the case of A3U C32A C38G U66C, the self-cleavage was 0.47.
